Our source for the Potency values is PubChem BioAssay AID360 (National Center for Advancing Translational Sciences (NCATS), 2006).

Hit rate of the full screen: of about 48,000 compounds, about 550 (1.1%) were called active. Not shown: some 4% with an inconclusive outcome. Rule as the data show it: active = potency below about 15 µM; inconclusive = mostly about 16 µM to 33 µM; inactive = weaker than that. This is one part of the list.
Potency is read from the fitted curve at half-maximal effect.

Sequence of UniProt P04062 (P04062 whole entry, looked up): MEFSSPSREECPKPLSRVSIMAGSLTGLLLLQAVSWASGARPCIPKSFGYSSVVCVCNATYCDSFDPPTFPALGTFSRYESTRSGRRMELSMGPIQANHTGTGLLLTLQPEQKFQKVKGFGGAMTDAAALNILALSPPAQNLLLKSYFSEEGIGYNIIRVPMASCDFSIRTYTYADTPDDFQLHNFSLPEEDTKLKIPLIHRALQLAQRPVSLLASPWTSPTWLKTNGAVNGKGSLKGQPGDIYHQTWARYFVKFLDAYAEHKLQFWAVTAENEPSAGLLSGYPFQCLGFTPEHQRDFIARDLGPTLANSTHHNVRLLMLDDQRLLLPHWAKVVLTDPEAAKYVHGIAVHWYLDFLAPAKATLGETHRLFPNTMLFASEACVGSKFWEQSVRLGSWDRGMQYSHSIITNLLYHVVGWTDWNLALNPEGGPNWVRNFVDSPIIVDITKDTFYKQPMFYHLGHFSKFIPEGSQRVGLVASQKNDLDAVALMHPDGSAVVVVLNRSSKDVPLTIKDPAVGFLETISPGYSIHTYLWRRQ

The target of the assay is Lysosomal acid glucosylceramidase (Homo sapiens) (UniProt P04062). In words: Glucocerebrosidase.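 Also: the screen sought inhibitors.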 The settings on record: purified enzyme, resorufin glucoside fluorescence (screen aimed at inhibitors), 20 min. The gist of the method:
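Compounds titrated against 0.2 nM normal enzyme, 30 uM resorufin beta-D-glucopyranoside substrate, citrate/phosphate buffer with taurocholate and tween-20, pH 5.9. Reaction ran 20 min at room temperature; fluorescence (Ex 548/Em 600) gave AC50.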
With `CCC(=O)Nc1cccc(NC(=O)c2ccc3c(c2)OCCO3)c1`, the Potency was inactive: > 76.9 µM.

For the molecule `CCOc1ccc2nc3c(cc2c1)CN(CCCO)C(=NCCOC)S3`, the Potency is inactive: > 76.9 µM. In the case of `COC(=O)c1ccc(COC(=O)c2c(C)nn(Cc3ccccc3Cl)c2Cl)o1`, the Potency is inactive: > 76.9 µM. Take `O=C(C1CC1)N1CCc2cc(S(=O)(=O)NCCC3=CCCCC3)ccc21`: the Potency was inactive: > 76.9 µM. In the case of `CCCOc1ccc(C(=O)N2CCN(c3ccc(N)cc3Cl)CC2)cc1`, the Potency was inactive: > 76.9 µM. Take `CCc1ccc2c(c1)c1nc(C)sc1n2CC`: the Potency is inactive: > 76.9 µM. The figure for `C=CCN(CC=C)C(=O)Nc1cc(Cl)ccc1OC` is inactive: > 76.9 µM; for `CC(C)c1nc2oc3c(N4CCN(C)CC4)ncnc3c2c2c1CCC2` it is active: 8.51 µM. For `COc1ccc(CCNC(=O)C2CCN(C(=O)N(C)C)CC2)cc1OC`, the Potency was inactive: > 76.9 µM. For `Cc1ccccc1NC(=O)CSCCO` the value was inactive: > 76.9 µM; for `O=C(c1cc(-c2cccs2)on1)N1CCN(c2ccccc2)CC1`, inactive: > 76.9 µM. For `C=CCn1c(SCc2nnc(-c3ccccc3)o2)nnc1C(O)c1ccccc1` (stereo unspecified) the value was inactive: > 76.9 µM; for `Cc1cc(C(=O)NC(C)c2ccncc2)cs1` (stereo unspecified), inactive: > 76.9 µM; for `CCOC(=O)c1cc2occc2n1CC(=O)N1CCN(C(=O)c2ccco2)CC1`, inactive: > 76.9 µM. Regarding `CCn1c(SCc2nnc(-c3ccccc3)o2)nc2c1c(=O)n(C)c(=O)n2C`, the Potency is inactive: > 76.9 µM. Regarding `COc1ccc(OC)c(NC(=O)C2CCN(S(C)(=O)=O)CC2)c1`, the Potency is inactive: > 76.9 µM. With `COc1ccc(NC(=O)COC(=O)c2cnccn2)cc1Cl`, the Potency was inactive: > 76.9 µM.

Turning to `Cc1ccc(-n2nnc3c(=O)oc4ccccc4c32)cc1`, the Potency is inactive: > 76.9 µM. Regarding `N#Cc1c(C(F)(F)F)cc(-c2ccco2)nc1SCc1ccccn1`, the Potency is inactive: > 76.9 µM. The figure for `COc1ccc(S(=O)(=O)N2CC(O)CC2C(=O)OCC(=O)Nc2ccc(Cl)cn2)cc1` (stereo unspecified) is inactive: > 76.9 µM; for `Cc1cc(C(=O)NC(C)C)on1` it is inactive: > 76.9 µM. With `Cn1c(=O)c(=O)n(C)c2cc(S(=O)(=O)N3CCc4ccccc43)ccc21`, the Potency is inactive: > 76.9 µM.

For `COc1ccc(-n2c(SCc3ccc(C#N)cc3)nnc2-c2ccccn2)cc1`, the Potency is inactive: > 76.9 µM. For `CCOc1ccccc1NS(=O)(=O)c1c(C)noc1C`, the Potency is inactive: > 76.9 µM. With `C=C(C)Cn1c(N2CCC(Cc3ccccc3)CC2)nc2c1c(=O)[nH]c(=O)n2C`, the Potency is inactive: > 76.9 µM. For `O=C(Nc1cccnc1N1CCOCC1)c1cc2ccccc2oc1=O`, the Potency was inactive: > 76.9 µM. The figure for `O=C(c1ccccc1F)N1CCN(Cc2cccc(Cl)c2)CC1` is inactive: > 76.9 µM; for `Cn1c(C(=O)Nc2ccc3c(c2)OCO3)cc2sccc21` it is inactive: > 76.9 µM; for `CC(=O)c1cccc(-n2nnnc2SCC(=O)N2CCCC2)c1` it is inactive: > 76.9 µM. Regarding `CCOc1ccc(OCC)c(NC(=O)CN(C)S(=O)(=O)c2cccc3nsnc23)c1`, the Potency is inactive: > 76.9 µM. The figure for `COc1ccc2ccccc2c1/C=N/O` is inactive: > 76.9 µM. The figure for `CCOC(=O)c1c(C)oc2ccc(OCC(N)=O)cc12` is inactive: > 76.9 µM. The figure for `COc1cc(C(=O)OCC(=O)Nc2c(F)c(F)c(F)c(F)c2F)cc(OC)c1OC` is inactive: > 76.9 µM; for `Cn1c(C(=O)O)c(CC(=O)Nc2ccccc2F)c2ccccc21` it is inactive: > 76.9 µM; for `C/C(N)=C(/C#N)C(=O)CSc1nnnn1-c1ccc(C)cc1C` it is inactive: > 76.9 µM. Turning to `Cc1cc(C(F)F)n2ncc(C(=O)NC3CCCCCC3)c2n1`, the Potency was inactive: > 76.9 µM. For `Nc1nc2nccc(-c3ccc(Cl)cc3)n2n1`, the Potency was inactive: > 76.9 µM. `COCCN(CCOC)S(=O)(=O)c1ccc(OC)cc1`: the Potency is inactive: > 76.9 µM. The figure for `CC(=O)c1cccc(NC(=O)N2CCCC2C(=O)Nc2c(C)cccc2C)c1` (stereo unspecified) is inactive: > 76.9 µM; for `O=c1cc(NCc2ccco2)[nH]c(=O)n1-c1ccc(Br)cc1` it is inactive: > 76.9 µM; for `O=C(NCCCN1CCOCC1)c1cc(-c2ccc(Br)cc2)on1` it is inactive: > 76.9 µM. Take `COc1c(F)c(F)c(C(=O)Nc2ccccc2N2CCN(C(=O)C(C)C)CC2)c(F)c1F`: the Potency is inactive: > 76.9 µM. For `N#CCCn1cc(C(CC(=O)c2ccccc2)C(=O)O)c2ccccc21` (stereo unspecified) the value was inactive: > 76.9 µM; for `COC(=O)c1ccc(OC)c(CSc2nnc(COc3ccc(Cl)cc3)o2)c1`, inactive: > 76.9 µM; for `Cc1occc1-c1nnc(SCC(=O)Nc2ccccc2)n1C(C)c1ccccc1` (stereo unspecified), inactive: > 76.9 µM. The figure for `CCc1c(C)nc2ncnn2c1N1CCCC(C(=O)NCc2ccc3c(c2)OCO3)C1` (stereo unspecified) is inactive: > 76.9 µM; for `C[C@H](NC(=O)Nc1ccccc1F)C(=O)O` it is inactive: > 76.9 µM; for `O=S(=O)(Cc1ccccc1)Nc1ccc(S(=O)(=O)NCC2CCCO2)cc1` (stereo unspecified) it is inactive: > 76.9 µM.

Take `CCOC(=O)C1C(=O)NC(N2CCc3ccccc32)=NC1c1ccccc1` (stereo unspecified): the Potency was inactive: > 76.9 µM. In the case of `Cc1nc(CC(=O)Nc2nc(-c3ccccc3)cs2)cs1`, the Potency was inactive: > 76.9 µM. For `CCCOC(=O)c1ccc(Oc2c(-c3ccc(OCC)cc3O)n[nH]c2C)cc1` the value was inactive: > 76.9 µM; for `Cc1cccc(OCc2nnc(SCC(=O)N3CCc4ccccc43)n2C)c1`, inactive: > 76.9 µM; for `COCCn1c(SCC(=O)Nc2ncc(Cl)c(C)c2Cl)nc2ccccc21`, inactive: > 76.9 µM. The figure for `CN1C(=O)c2ccccc2N(C)C1c1cccs1` (stereo unspecified) is inactive: > 76.9 µM; for `O=C(Nn1cnc2ccccc2c1=O)C1CCCCC1` it is inactive: > 76.9 µM; for `O=C(CSc1nnc(-c2cccc(S(=O)(=O)N3CCCCC3)c2)o1)c1ccc[nH]1` it is inactive: > 76.9 µM. Consider `Cc1cc(Cl)ccc1OCC(=O)N1CC(C)CC(C)C1` (stereo unspecified), for which the Potency is inactive: > 76.9 µM. Take `CC(=O)c1ccccc1OCCn1nnc(-c2ccc(C)cc2)n1`: the Potency was inactive: > 76.9 µM.

`O=C(CN1CC(=O)Oc2ccccc21)NCc1ccco1`: the Potency is inactive: > 76.9 µM. For `CN(C)c1[nH]c(=O)c(C#N)c2c1CCN2Cc1ccccc1` the value was “inactive”.

Turning to `Cc1nn(Cc2ccccc2Cl)c(C)c1C(=O)Nc1nnc(C2CC2)s1`, the Potency is inactive: > 76.9 µM. For `CCOC(=O)c1cc(-c2ccc(Cl)s2)nc2c1c(C)nn2C` the value was inactive: > 76.9 µM; for `CCOC(=O)C1CCN(S(=O)(=O)c2ccc(OCC(=O)OC)cc2)CC1`, inactive: > 76.9 µM. In the case of `O=C(Nc1ccc(S(=O)(=O)N2CCc3ccccc32)cc1)c1ccco1`, the Potency was inactive: > 76.9 µM. For `COCC(=O)Nc1nnc(C2CCCCC2)s1` the value was inactive: > 76.9 µM; for `CCC(=O)Nc1cccc(NC(=O)CSc2nnc(C(C)C)n2CC)c1`, inactive: > 76.9 µM; for `COC(=O)C1(CCSC)NC(c2ccccc2OC)C2C(=O)N(C)C(=O)C21` (stereo unspecified), inactive: > 76.9 µM.

Consider `Cn1c(=O)c2c(ncn2CC(=O)Nc2cc(Cl)c(Cl)cc2Cl)n(C)c1=O`, for which the Potency is inactive: > 76.9 µM.

On to `Cc1cc2c(c(=O)n1CC1CCCO1)C(c1ccco1)C(C#N)=C(N)O2` (stereo unspecified), for which the Potency is inactive: > 76.9 µM. For `COCCNc1ncnc2nc[nH]c12` the value was inactive: > 76.9 µM.

For `Cc1nn(C)c(C)c1CN(C)C(=O)c1cc2n(n1)C(C(F)(F)F)CC(c1cccs1)N2` (stereo unspecified), the Potency is inactive: > 76.9 µM.

For `COc1ccccc1NC(=O)c1cn(C)c(=O)c2cc(OC)c(OC)cc12`, the Potency was inactive: > 76.9 µM.

On to `CC(C)C(NC(=O)c1ccccc1NC(=O)c1ccco1)C(=O)O` (stereo unspecified), for which the Potency is inactive: > 76.9 µM. For `Cc1cc(C(=O)CSc2nnnn2-c2ccc(O)cc2)c(C)n1Cc1ccc2c(c1)OCO2` the value was inactive: > 76.9 µM; for `COc1ccc(NC(=O)CCCN2C(=O)C3C4C=CC(C4)C3C2=O)c(OC)c1` (stereo unspecified), inactive: > 76.9 µM.

For `CCc1nc2scc(-c3ccccc3)c2c(=O)n1N`, the Potency was inactive: > 76.9 µM. Consider `O=C(CN1CCN(S(=O)(=O)c2ccc(F)cc2)CC1)Nc1ccccc1F`, for which the Potency is inactive: > 76.9 µM.

`CC(C)(C)NC(=O)COc1ccc(CNn2nnnc2N)cc1`: the Potency was inactive: > 76.9 µM. As for `O=C1c2ccccc2C(=O)N1CCCc1nc(-c2cccnc2)no1`, the Potency was inactive: > 76.9 µM. `COc1ccc(CN(C2CCCC2)S(=O)(=O)c2ccc(-n3cnnn3)c(OC)c2)cc1OC`: the Potency is inactive: > 76.9 µM.

Take `CCCC(=O)Nc1ccc(NC(=O)c2ccccc2OC)cn1`: the Potency is inactive: > 76.9 µM.

Turning to `O=C(NCCN1CCN(c2ccccc2)CC1)c1cccn2c(=O)c3cc(Cl)ccc3nc12`, the Potency was inactive: > 76.9 µM. For `CCCCC(=O)Nc1ccc(N2CCN(C(=O)CC)CC2)cc1` the value was inactive: > 76.9 µM. For the molecule `COCC(=O)Nc1nnc(SCC(=O)NCc2cccs2)s1`, the Potency was inactive: > 76.9 µM. For `CC(=O)c1ccc(NC(=O)N2CCN(c3cccc(Cl)c3)CC2)cc1` the value was inactive: > 76.9 µM; for `O=C(CCCNS(=O)(=O)c1cccc2nsnc12)NCc1ccccc1`, inactive: > 76.9 µM. For `O=S(=O)(Nc1ccc(N2CCOCC2)nn1)c1ccccc1` the value was inactive: > 76.9 µM; for `Cc1cc(NC(=O)CSc2nnc(COc3ccccc3)o2)no1`, inactive: > 76.9 µM. The figure for `O=C(c1ccc2c(c1)N(Cc1ccc(F)cc1)C(=O)CS2)N1CCOCC1` is inactive: > 76.9 µM.

Take `COc1ccc(C2CC3(CC(C)(C)NC(=O)N3)Oc3cc(O)ccc32)cc1` (stereo unspecified): the Potency is inactive: > 76.9 µM.

`CCOC(=O)CCCCC(=O)c1[nH]c(=O)[nH]c1Cn1ccnc1`: the Potency is inactive: > 76.9 µM.
